# Reference: ChEMBL document CHEMBL4888484, “Replenishing the malaria drug discovery pipeline: Screening and hit evaluation of the MMV Hit Generation Library 1 (HGL1) against asexual blood stage Plasmodium falciparum ,using a nano luciferase reporter read-out” (2022)
# Out of some 150,000 compounds screened, about 540 (0.36%) showed an effect of 50% or more. The list shows a part of the results.
# System: Plasmodium falciparum
# Assay: Primary screen in NF54 nanoGlo assay, in single point, at 2uM, 72h; a lower Z score goes with more inhibition
# Assay type: functional, Erythrocyte
# Conditions: timepoint 72 hour
Compound,% Inhibition [%],Z score
C[C@H]1CN(C(=O)c2cc(Cl)cn2C)C[C@@H]1C(=O)OC(C)(C)C,-1,0.18
COc1ccc(CNC(=O)[C@@H]2NCCc3[nH]cnc32)c(F)c1F,-3,0.54
CC(C)CCNC(=O)CC1(N2Cc3ccccc3C2=O)CCN(Cc2ccccc2)CC1,-6,0.88
N#Cc1cnccc1NCC1CCC2(CC1)OCCO2,-38,4.4
O=C(NCC1(O)CCCC1)c1cccc(Br)c1,-11,1.91
COC[C@H]1CCN1C(=O)c1nc2n(n1)CCCN2,-12,1.13
CC(C)(C)c1cccc(OC/C=C/Cn2ccnc2)c1,-9,0.99
CCOc1cccc(CNC(=O)c2c(O)c3cccnc3[nH]c2=O)c1,-7,0.93
CC(C)C[C@H](C)OC(=O)N1CC(c2ncc(C3CC3)cn2)C1,-8,0.7
O=C(Nc1ccccc1)c1cccc(-c2nc(-c3ccc(F)cc3)no2)c1,-6,1.11
Cc1nc(-c2cnn(C)c2)sc1C(=O)O[C@@H](C)C1CC1,8,-1.44
N#CC1(CNC(=O)CNC(=O)C2C3CCCCC32)CC1 (stereo not given),36,-5.15
C=CCN=C(NCc1cccnc1)NCc1cccc(OC)c1,0,0.04
C[C@H]1CN(c2nc3ccccc3c3nnc(C4CCCCC4)n23)CCN1C(=O)c1ccccc1,3,-0.51
Cc1sc2ncnc(N3C[C@H](OC(C)C)[C@@H](O)C3)c2c1C,-16,1.99
O=C1NC(=O)C(C2CCCN(C(=O)C3CC3c3cccc(F)c3)C2)N1 (stereo not given),-13,1.14
O=C(O)CN(Cc1ccccc1)C(=O)[C@@H]1Cc2ccccc21,-4,0.43
O=C(Nc1nc2ccc(F)cc2s1)c1ccc(OCc2ccccc2)cc1,-2,0.33
COc1ccc(CCC(=O)NC2CCN(c3cc4c(nn3)CCCC4)CC2)cc1,-21,3.67
CN(Cc1nc(C(C)(C)C)no1)C[C@@H]1CCCO1,-2,0.22
CS(=O)(=O)N1CCC(C(=O)N[C@H]2CC3(CCCCC3)Oc3ccccc32)CC1,-6,1.09
Nc1nccnc1C(=O)N1CCC(c2nc3ccccc3s2)CC1,-14,1.99

Compound,% Inhibition [%],Z score
O=C1CCCN1CC[C@H]1CN(C(=O)COCc2cccnc2)c2ccccc21,-8,1.52
COc1cccc(CN2CCOc3ccc(CCC(=O)NCC4CC4)cc3C2)c1,-5,0.56
CC1CCCC(NC(=O)CNC(=O)C2CCCCC2)C1C (stereo not given),-7,0.92
CCOC(=O)CC1NCC(C)NC1=O (stereo not given),-8,1.05
CC(=O)N1C[C@H]2CC[C@@H](C1)N(C(=O)C(C)(C)c1ccccc1)C2,-11,1.39
CC(C)c1nc([C@H](C)NC(=O)CN(C)C2CC2)cs1,6,-0.57
CCOC(=O)Cc1cnc(NC(=O)[C@H]2CCN(Cc3ccccc3)C2)s1,-15,2.25
O=C(NC[C@@H](c1ccco1)n1cccn1)c1ccoc1,11,-1.52
Cc1c(C(=O)NCc2nccn2C)cnn1C,-8,1.12
Cc1ccc(-c2cc3n(n2)CCCN(C(=O)COc2ccc(Cl)cc2)C3)cc1,-6,0.97
Cc1ccc(S(=O)(=O)NC(c2ccc3c(c2)CCO3)[C@H]2C[C@@H](O)C2)s1 (stereo not given in full),-4,0.61
O=C(c1nc(C2CC2)nn1-c1cccc2cccnc12)N1CCCCCC1,6,-1.02
CCOC(=O)N1CCN(C(=O)CN2Cc3cc(OC)ccc3O[C@@H](CC)C2)CC1,-2,0.3
CC(C)n1ncc2cc(CNCC3(CO)CCC3)cnc21,-2,0.16
C[C@@H](c1nc(CC2CCN(C)CC2)no1)n1cnc2ccccc2c1=O,-5,0.54
Cc1cc(S(=O)(=O)NCc2cncn2CC(C)C)c(C)s1,-7,1.35
CNC(=O)Cn1cc(NCC2(C)CN(C(=O)OC(C)(C)C)C2)cn1,-6,1.01
CCOc1ccccc1NC(=O)N1C[C@H](Oc2ccccc2)C[C@@H]1C(=O)N1CCOCC1,6,-0.83
O=C(CN[C@H](c1ccccc1)c1cccs1)Nc1ccc2c(c1)OCO2,-7,0.9
Cc1noc(C)c1CO[C@H]1COCC[C@@H]1Nc1ccc2ccccc2n1,-17,2.56
Cc1cc(Cl)ccc1OCC(=O)Nc1nnc(C2CC2)s1,2,-0.24
CCOC(=O)[C@H](C)OC(=O)c1cccc(CN(C)C)c1,2,-0.19

Compound,% Inhibition [%],Z score
CN1CCCC1C1CCCN1C(=O)c1cccn1C (stereo not given),-1,0.1
COc1ccc(CN(C)S(=O)(=O)N(C)C(C)C)cc1,0,-0.02
C[C@@](Cc1ccccc1)(NC(=O)CCc1cscn1)C(=O)O,-13,1.33
CN1C[C@@H](N)C[C@H]1C(=O)N1CCc2onc(-c3ccc(-c4ccccc4)cc3)c2C1,-4,0.52
Cc1cnn(-c2ccc(NC(=O)N3CCN(C4CC4)CC3)cc2F)c1,-8,0.89
COCc1nsc(N2CCC(c3ccccc3)CC2C)n1 (stereo not given),39,-5.61
CCCCCNC(=O)N[C@@]1(C)CCS(=O)(=O)C1,-2,0.2
Cc1ccc(C(N)=O)c(N2CCC(n3cc(C4CCCC4)nn3)CC2)n1,-28,2.51
CCOC(=O)[C@H](CCc1ccccc1)N[C@H](C)C(=O)N1Cc2ccccc2C[C@H]1C(=O)O,-10,1.38
CCN(CC)S(=O)(=O)c1ccc(C(=O)N(CC(C)C)CC(C)C)cc1,10,-1.61
COC(C(=O)N1CCOc2c(Cl)cc(Br)cc21)C1CCOC1 (stereo not given),-1,0.17
CCN(C)C(=O)c1cccc(Nc2c(Oc3ccc4c(c3)CCC4)cnn(-c3ccc(OC)cc3)c2=O)c1,3,-0.48
CCOc1nc2c(c(C)nn2-c2cccc(F)c2)c(C)c1CCC(=O)NCc1cccc(Cl)c1,12,-1.76
Cc1nnc(COc2ccc3c(c2)CCNC3=O)o1,-5,1.03
OC(COCC1CCCO1)CN1CCN(c2ncccn2)CC1 (stereo not given),-4,0.45
O=C(c1cnccn1)N1CC[C@H](c2ccnc(-c3ccncc3)c2)C1,13,-1.67
Nc1nc2c(c(-c3cccnc3)n1)CN(C(=O)C1CCCC1)C2,-26,2.82
Cc1nn2c(c1C#N)NC(=O)[C@@H]2CC(=O)Nc1ccccc1Cl,-6,0.76
CCCc1noc(Cn2cnc3snc(C)c3c2=O)n1,-15,1.91
Cc1cc(CN2CCC3(CC2)C[C@@H]3c2nc(-c3cccnc3)no2)on1,-6,0.93
O=C(C[C@@H]1C[C@H]2O[C@H](CNCc3ccccc3Cl)[C@@H](O)[C@H]2O1)N1CCOCC1,10,-1.15
O=C1CCC2(CCN(C(=O)c3cc(Cl)ccc3O)CC2)N1,-2,0.31

Compound,% Inhibition [%],Z score
CC(NCC1(C(O)C(C)C)CC1)c1ccc(=O)[nH]n1 (stereo not given),-14,1.88
COCCN(Cc1cc2ccc(Cl)cc2nc1N(C)C)C(=O)CCc1ccc(C)cc1,-4,0.75
CCN(C(=O)[C@H]1CCN(C)[C@@H](C)C1)C1CCCC1,31,-0.9
CNS(=O)(=O)c1ccccc1Br,15,-1.7
CN1CCCC[C@@H](C(=O)Nc2ncccc2CO)C1=O,-8,1.26
Cc1c[nH]c(CN(C)c2cc([C@H]3CCOC3)nc(NCCO)n2)n1,-1,0.19
CC1CCC(N(C[C@H]2CCCO2)C(=O)Cn2cnnn2)CC1 (stereo not given in full),-11,1.1
C=CCn1cc(CN2CCC3(CC2)CN(CCN2CCN(CC)CC2)C(=O)O3)cn1,3,-0.54
Cc1cccc(CC2(NC(=O)C[C@H]3CC3(F)F)CC2)c1,0,0.03
CCOc1ccc(C(=O)N2CCN(S(=O)(=O)c3ccc4c(c3)NC(=O)CO4)CC2)cc1OCC,4,-0.37
C=C[C@H]1OCC[C@@H]1CNC(=O)N1CC(F)C1,-1,0.22
O=C(CCC1CCN(C(=O)c2cnco2)CC1)Nc1ccccc1Cl,-7,0.92
CC(C)(C(=O)NC[C@@]12CCC[C@@H]1OCC2)c1ccc2c(c1)OCO2,-7,0.94
O=C(CCn1cc([C@H]2CCOC2)nn1)Nc1nccs1,-14,2.35
Cc1cc(O)cc(O)c1C(=O)Cc1ccc2cccnc2c1,-8,1.02
Cc1ccc2[nH]c(CN(C)C(=O)NCC3(Cn4nc(C)cc4C)CC3)nc2c1,-4,0.8
COc1ccc(C)cc1N1CCN(C(=O)c2cccs2)[C@@H](C)C1=O,-3,0.62
O=C(CCc1ccc(C(=O)O)cc1)NC1CCC(C(F)(F)F)CC1 (stereo not given),-9,1.69
N#Cc1cccc(N2Cc3cnn(CCO)c3C2)n1,-3,0.56
